In publication PMC4336329 (PLoS ONE, 2015):
About 14,000 (4.5%) of roughly 310,000 compounds showed an effect of 50% or more. Effects have a minus sign here. This is one part of the list.

These compounds were tested against human ether-à-go-go-related gene (hERG) potassium channel (human, UniProt Q12809) (assay: primary screen, population patch clamp on CHO cells stably expressing hERG).
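Note: peak tail current of the secondary pulse compared with the same well before compound.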

human ether-à-go-go-related gene (hERG) potassium channel, sequence (Q12809 whole entry, looked up): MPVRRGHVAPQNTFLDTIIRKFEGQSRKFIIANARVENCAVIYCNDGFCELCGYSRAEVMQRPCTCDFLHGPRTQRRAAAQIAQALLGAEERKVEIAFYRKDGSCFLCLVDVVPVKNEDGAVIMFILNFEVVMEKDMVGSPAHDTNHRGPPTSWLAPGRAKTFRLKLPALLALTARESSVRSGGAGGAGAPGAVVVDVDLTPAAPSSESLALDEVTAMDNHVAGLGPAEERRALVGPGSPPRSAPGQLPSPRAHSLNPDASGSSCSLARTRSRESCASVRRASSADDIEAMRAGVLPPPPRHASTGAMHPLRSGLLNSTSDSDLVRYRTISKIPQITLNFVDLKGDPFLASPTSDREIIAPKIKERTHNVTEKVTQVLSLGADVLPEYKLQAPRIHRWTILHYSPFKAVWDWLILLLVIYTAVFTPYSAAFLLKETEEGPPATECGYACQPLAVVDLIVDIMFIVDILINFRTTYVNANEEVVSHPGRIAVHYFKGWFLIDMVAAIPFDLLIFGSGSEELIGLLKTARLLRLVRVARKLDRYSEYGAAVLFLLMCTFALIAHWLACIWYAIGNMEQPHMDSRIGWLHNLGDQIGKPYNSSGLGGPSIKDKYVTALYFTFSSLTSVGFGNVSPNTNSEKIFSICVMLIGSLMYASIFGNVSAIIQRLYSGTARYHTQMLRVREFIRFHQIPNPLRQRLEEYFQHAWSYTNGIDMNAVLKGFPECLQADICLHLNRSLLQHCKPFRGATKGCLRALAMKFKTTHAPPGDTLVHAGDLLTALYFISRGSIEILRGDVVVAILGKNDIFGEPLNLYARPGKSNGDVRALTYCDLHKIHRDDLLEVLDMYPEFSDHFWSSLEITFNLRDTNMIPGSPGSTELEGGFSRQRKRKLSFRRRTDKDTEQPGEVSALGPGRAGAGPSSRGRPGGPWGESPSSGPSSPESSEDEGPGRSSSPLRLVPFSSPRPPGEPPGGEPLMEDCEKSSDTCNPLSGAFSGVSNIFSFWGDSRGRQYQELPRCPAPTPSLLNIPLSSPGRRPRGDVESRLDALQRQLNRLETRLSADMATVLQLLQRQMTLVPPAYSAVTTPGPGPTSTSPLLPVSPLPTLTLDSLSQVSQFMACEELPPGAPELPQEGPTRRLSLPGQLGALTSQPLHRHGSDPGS

| Compound | hERG current change (%, negative = inhibition) at 10uM [%] |
| --- | --- |
| Br.Cc1nn(CCc2nc(-c3ccco3)cs2)c2[nH]c(=O)cc(C(F)(F)F)c12 | -0.123 |
| O=C(O)C(Oc1ccc2ccccc2c1)c1ccccc1 (centres unmarked) | 26.3 |
| Cc1ccnc(OC(C(=O)O)C(OCCc2ccccc2)(c2ccccc2)c2ccccc2)n1 (centres unmarked) | 23.2 |
| Cc1cc(C)cc(N=c2c([N+](=O)[O-])nn(-c3ccc(Cl)cc3)n2O)c1 | 11.8 |
| CCCCCCCSc1nsc(N)n1 | -10.6 |
| O=C(O)CSC1CC(=O)N(c2ccc(Br)cc2)C1=O (centres unmarked) | 11.5 |
| COc1ccc(C2C(C#N)=C(N)Oc3cc(O)ccc32)cc1OC (centres unmarked) | -13 |
| CNC(=O)/C(C#N)=C/c1c(N2CC(C)OC(C)C2)nc2ccccn2c1=O (centres unmarked) | 1.43 |
| NC(=O)CC[C@H](NC(=O)c1ccc(F)cc1)C(=O)OCC(=O)Nc1ccc(N2CCOCC2)cc1 | 14.8 |
| Cc1ccc(S(=O)(=O)CCC(=O)OCc2nnc(-c3ccccc3Br)o2)cc1 | -2.09 |
| O=C(c1ccc2c(c1)N(Cc1ccc(F)cc1)CCS2)N1CCOCC1 | -23.3 |
| O=C1/C(=C/c2ccc3c(c2)OCO3)N2CCC1CC2 | -6.99 |
| O=c1cc(-c2ccco2)oc2c1ccc1ccccc12 | 19.9 |
| CCc1noc(C)c1C(=O)N1CCCSC1=Nc1ccccc1Cl | -17.1 |
| COCCOC(=O)c1c(C)oc2ccc(OC(=O)c3ccco3)cc12 | -7.34 |
| C(=N\Nc1ccc2nncn2n1)/c1ccco1 | 10.7 |
| O=C(CSCc1c(Cl)cccc1Cl)NCc1cccnc1 | -1.4 |
| Cc1ccc(-n2ncc3c2CCCC3NC(=O)CCN2CCCC2=O)cc1C (centres unmarked) | 6.09 |
| OCCNC(=S)Nc1cccc(Cl)c1Cl | 11.7 |

| Compound | hERG current change (%, negative = inhibition) at 10uM [%] |
| --- | --- |
| CN(C)CCCOC(=O)N1c2ccccc2C=Cc2ccccc21.Cl | 10.2 |
| O=C(CCCN1C(=O)c2ccccc2C1=O)Nc1ccc(S(=O)(=O)N2CCOCC2)cc1 | 2.89 |
| CC(C)CC(COCc1ccc(F)cc1)N1CCN(C(=O)c2cccc(C(F)(F)F)c2)CCC1=O (centres unmarked) | -46.9 |
| O=C1CCCC/C1=C/Nc1cccc(C(F)(F)F)c1 | 11.7 |
| O=C(/C=C/c1ccc2ccccc2c1)c1ccoc1 | 8.22 |
| CCCc1cc(=O)[nH]c(SCC(=O)Nc2nc(-c3ccccc3)cs2)n1 | 11.7 |
| Cc1ccc(C(=O)OCC(=O)NCCC2=CCCCC2)s1 | 3.2 |
| C=CCNC(=O)/C(C#N)=C/c1c(N2CCN(c3ccc(OC)cc3)CC2)nc2c(C)cccn2c1=O | -27.4 |
| COc1cccc(NC(=S)NC(=O)Cc2ccccc2)c1 | -22.2 |
| c1ccc(C[C@H]2CNCCN2CCC23CC4CC(CC(C4)C2)C3)cc1 | -4.46 |
| CC(C)CCOC(=O)C1C2C=CC3(CN(Cc4cccs4)C(=O)C13)O2 (centres unmarked) | 10.7 |
| CC12CC[C@H]3[C@@H](CCC4(O)C[C@H](O)CCC34/C=N/NC(=O)c3ccccc3[N+](=O)[O-])C1(O)CCC2C1=CC(=O)OC1 (some centres unmarked) | 5.28 |
| Cn1cccc1/C=N\NC(=O)C1COc2ccccc2O1 (centres unmarked) | 3.89 |
| COc1ccccc1NC(=O)CCC(=O)Nc1cc(OC)c(NC(=O)c2cccs2)cc1OC | -11 |
| COC(=O)c1[nH]c2cccc(OC)c2c1NC(=O)CCN1CCC(C)CC1 | -12.2 |
| Cc1ccc(-n2cc(C(=O)c3cc(Cl)ccc3O)cc(C#N)c2=O)cc1 | -3.3 |
| Cc1cc(C)c(S(=O)(=O)N(C)CC(=O)NC2CCCC2)c(C)c1 | 0.347 |
| O=C(Nc1cccc(C(F)(F)F)c1)N(Cc1ccc(Cl)cc1)CC(O)C(F)(F)F (centres unmarked) | -0.617 |
| O=C(Nc1ccnn1C1CCN(C(=O)c2cccc(C(F)(F)F)c2)CC1)C1CC1 | 24.6 |

| Compound | hERG current change (%, negative = inhibition) at 10uM [%] |
| --- | --- |
| COc1ccc(/C=C2/N=C(c3cccs3)OC2=O)cc1OC(C)C | 14.3 |
| CN(Cc1ccccc1)S(=O)(=O)c1ccc2c(c1)n(C)c(=O)c(=O)n2C | 6.38 |
| Cc1ccnc(N/N=C/c2ccco2)n1 | 21.5 |
| Clc1ccc(-c2nnc3n2CCCC3)cc1 | 14.3 |
| CCOc1cccc(NCc2cc3c(C(C)(C)C)nn(-c4ccccc4)c3[nH]c2=O)c1 | 4.56 |
| COc1ccc2c(c1)OC1(C)CC2C(C(=O)c2ccccc2OC)C(=O)N1 (centres unmarked) | 7.88 |
| CCOC(=O)C1CCN(C(=O)c2cccc(NS(=O)(=O)c3ccc(F)c(F)c3)c2)CC1 | -16.8 |
| C=CCOc1ccc(-c2nc3c(c(=O)[nH]c(=O)n3CCC)n2CCCC)cc1 | -5.34 |
| CCCCn1nc(CC(=O)NCCN(CC)CC)c2ccccc2c1=O | 2.16 |
| Cc1cc(/C=C(\C#N)C(=O)NCc2cccs2)c(C)[nH]1 | 40.7 |
| O=C(O)CCCNC(=O)c1cccc(C(=O)NCCCC(=O)O)n1 | 11.4 |
| Cc1nc2nc(C)c(CCC(=O)Nc3ccc4c(c3)OCO4)c(C)n2n1 | -18 |
| CCC(C)[C@H](NC(=O)N1CCn2c1nc1ccccc12)C(=O)NCCc1ccc(OC)c(OC)c1 (some centres unmarked) | -3.1 |
| CN1CCN(c2nc(-c3cccnc3)nc3scc(-c4ccccc4)c23)CC1 | -37.7 |
| CC(C)(C)c1ccc(S(=O)(=O)N2CCC(CO)(CC3CCCCO3)CC2)cc1 (centres unmarked) | -15.4 |
| Cc1ccc(C)c(OCCC(=O)NCCc2ccc(S(N)(=O)=O)cc2)c1 | 10.7 |
| Cc1ccc(C)c(S(=O)(=O)c2c(C)cc(C)[nH]c2=O)c1 | 25 |
| Cc1ccccc1C(=O)NCC(=O)OC(C)C(=O)Nc1ccnn1C(C)C (centres unmarked) | -2.39 |
